# The whole screen tested about 43,000 compounds, of which about 200 (0.47%) were called active. Another 12% or so got no clear call; they are omitted. The call rests on the fitted dose curve; in most records, active means well fitted cell-killing curve with a large enough effect; inconclusive means small, poorly fitted or top-dose-only effect, or effect the other way; inactive means flat fitted curve, though single readings scatter. The list shows a part of the results.
# Experiment: Cell viability qHTS assay in S16 Pmp22-F2sN cells; further: nearly all actives have a fitted effect of over 65% in size
# Conditions: S16 Pmp22-F2sN Schwann cells viability, CellTiter-Glo, 24 h; series mostly up to 57.5 µM; activity change, negative = cytotoxicity: at the top concentration
# Procedure, shortened: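 Used to flag compounds lowering reporter output through toxicity, this quantitative HTS measures ATP-based CellTiter-Glo luminescence in S16 Pmp22-F2sN Schwann cells after 24 h compound exposure at 37C.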
# On the % scale 0 is the no-effect control and ±100 the full control effect; potency means the concentration at half of the fitted maximal effect.
Compound,"activity change, negative = cytotoxicity",Potency
CCN(CC)C(=O)C1=C(C)Nc2nc3ccccc3n2C1c1ccc(Br)cc1 (stereo unspecified),inactive: -10.7%,–
CC(=O)c1cccc(NC(=O)CCS(=O)(=O)c2cc3c(cc2C)NC(=O)CO3)c1,inactive: 1.19%,–
CCOC(=O)c1c(NC(C)=O)c2c3c(sc2n1Cc1nc(-c2ccc(Cl)cc2)oc1C)CCCC3,inactive: 23.1%,–
CCc1ccc(CNC(=O)c2ccc(CSc3nc4ccncc4n3Cc3ccc(OC)cc3)cc2)cc1,inactive: -16.4%,–
COc1ccc(N2CCN(C(=O)Cc3coc4ccc(C)cc34)CC2)cc1,inactive: -3.11%,–
COc1ccc(CCNC(=O)c2sc3nc4n(c(=O)c3c2C)CCCC4)cc1OC,inactive: 7.04%,–
CCc1cccc(C)c1NC(=O)CC1Oc2ccc(C)cc2NC1=O (stereo unspecified),inactive: 2.72%,–
Cc1ccc(CNC(=O)CCc2c(C)nc3c(c(C)nn3-c3ccccc3)c2C)cc1,inactive: 5.48%,–
COc1ccc(C(=O)c2oc3ccccc3c2NC(=O)COc2ccccc2)cc1,inactive: 21.6%,–
COc1ccc(Cl)cc1NS(=O)(=O)c1cc(Br)cc2c1N(C(=O)C1CC1)CC2,inactive: 2.8%,–
CC(C)n1c(=N)c(C(=O)NCc2cccnc2)cc2c(=O)n3ccccc3nc21,inactive: -1.36%,–
Cc1ccc(NC(=O)C2CCN(c3nc4ccccc4nc3C(F)(F)F)CC2)cc1F,inactive: -4.22%,–
CCOC(=O)c1cc(-c2ccccc2)n(-c2cccc(C(=O)Nc3cccc(F)c3)c2)c1C,inactive: -17.6%,–
COc1ccc(C(=O)Nc2nnc(S(=O)(=O)N3CCCCCC3)s2)cc1OC,inactive: -4.34%,–
Cc1cccc(NC(=O)c2cc(S(=O)(=O)N3CCc4ccccc43)ccc2F)c1C,inactive: -9.04%,–
O=C(Nc1cccc(Cl)c1)N1CCSc2ccccc21,inactive: -2.82%,–
CCN(CC)c1cc(C)c2cc(NC(=O)c3cccc(F)c3)ccc2n1,inactive: -14.9%,–
CSc1ccc(CCNC(=O)c2cnn(-c3ccccc3)c2-n2cccc2)cc1,inactive: -12.2%,–
CCOc1ccccc1NC(=O)c1c(NC(=O)COc2ccccc2)sc2c1CCCCC2,inactive: 0.531%,–
CC(NC(=O)CCCC1=NS(=O)(=O)c2ccccc2N1)c1ccccc1 (stereo unspecified),inactive: 5.55%,–
Cc1ccc(N2C(=O)CSC23C(=O)N(CC(=O)NCCc2ccccc2)c2ccccc23)cc1C (stereo unspecified),inactive: -16.8%,–

Compound,"activity change, negative = cytotoxicity",Potency
CCOC(=O)c1cnc2c(ccc3ccccc32)c1Nc1ccccc1OCC,inactive: 1.48%,–
COc1ccc(OC)c(-c2cc(C(=O)NCCc3ccccc3)c3c(-c4ccc(C)cc4)[nH]nc3n2)c1,inactive: -26.4%,–
COCCCNC(=O)CS(=O)Cc1nc(-c2cccc(C)c2)oc1C (stereo unspecified),inactive: 4.51%,–
CC(C)CS(=O)(=O)c1oc(-c2ccc(F)cc2)nc1S(=O)(=O)c1ccccc1,–,active: 4.47 µM
COc1cccc(Cn2nnc(C(=O)Nc3cc(C)ccc3C)c2N)c1,inactive: -8.83%,–
CCOc1ccc(NC(=O)N2CCC(C(N)=O)(N3CCCCC3)CC2)cc1,inactive: 8.38%,–
COc1ccc(CCNC(=O)c2cnc3ccc(C)cn3c2=O)cc1,inactive: 0.521%,–
CCCS(=O)(=O)c1c(S(=O)(=O)CCC)c2cc(CC)ccn2c1C(=O)c1ccc(OC)cc1,inactive: -14%,–
Cc1ccc2nc(NC(=O)CSc3nccn3Cc3ccc(Cl)cc3)sc2c1,inactive: 9.07%,–
Cc1ccn2c(=O)c(C(=O)NCCc3ccccc3)c(O)nc2c1,inactive: -1.52%,–
O=C(Cn1c(=O)n(Cc2ccccc2)c(=O)c2sc3ccccc3c21)NCc1ccccc1Cl,inactive: 2.13%,–
O=C(CCc1nc(-c2cccs2)no1)Nc1ccccc1[N+](=O)[O-],inactive: -0.849%,–
O=C(NC1CC(=O)N(c2cccc(F)c2)C1)c1ccc(S(=O)(=O)N2CCCC2)cc1 (stereo unspecified),inactive: 0.45%,–
COc1ccc(Cn2c(=O)[nH]c3cc(C(=O)N4CCN(c5cccc(Cl)c5)CC4)ccc3c2=O)cc1,inactive: 0.767%,–
Cn1c(=O)n(-c2ccc(Br)cc2F)c(=O)c2sc3ccccc3c21,inactive: -1.35%,–
CCOc1ccc(NC(=O)CN2C(=O)C(c3ccccc3)=NC23CCC(C)CC3)cc1 (stereo unspecified),inactive: -2.53%,–
COc1cc2c(=O)c(S(=O)(=O)c3ccc(F)cc3)cn(Cc3ccc(Cl)cc3)c2cc1OC,inactive: 15.9%,–
CCOC(=O)c1ccc(CN(Cc2ccc(F)cc2)S(=O)(=O)c2cc(C(=O)Nc3cccc(C(F)(F)F)c3)ccc2F)cc1,inactive: -8.32%,–
O=C(NC1CCCCCC1)c1ccc2c(c1)sc1nc(-c3ccc(F)cc3)cn12,inactive: -17.3%,–
CCCN1C(C(=O)c2ccccc2)=C(OC(=O)COc2ccccc2)c2ccccc2S1(=O)=O,inactive: -29.3%,–
Cc1ccc(Cl)cc1NC(=O)C(C)n1nnc2sc3c(c2c1=O)CCCC3 (stereo unspecified),inactive: 1.02%,–

Compound,"activity change, negative = cytotoxicity",Potency
Cc1cccc(N2CCN(S(=O)(=O)c3ccc4c(c3)CCCN4C(=O)C3CCC3)CC2C)c1 (stereo unspecified),inactive: -23.9%,–
COc1ccc(C2C(C(N)=O)=C(C)Nc3nc(CCCO)nn32)c(OC)c1 (stereo unspecified),inactive: -4.5%,–
O=C(Nc1ccc(C(=O)OCc2cc(=O)n3c4c(sc3n2)CCCC4)cc1)c1ccccc1,inactive: 1.73%,–
Cc1ccc(-c2nnc(Nc3cccc(Cl)c3)c3ccccc23)cc1S(=O)(=O)N1CCOCC1,inactive: 14.1%,–
COc1ccccc1NC(=O)Cn1c(=O)n(Cc2ccccc2)c(=O)c2sc3ccccc3c21,inactive: -1.46%,–
COc1ccc(C)cc1NC(=O)N(Cc1ccc(C)o1)C1CCN(C(C)=O)CC1,inactive: 17.1%,–
O=C(Cn1cnc2c(oc3ccccc32)c1=O)Nc1ccccc1C(F)(F)F,inactive: 11.1%,–
CC(C)COc1cccc(C(=O)Nc2ccc(-c3nc4ncccc4o3)cc2)c1,inactive: -13.6%,–
CCCc1nc2sc3c(N4CCC(C)CC4)ncnc3c2c2c1CCCC2,inactive: 15.5%,–
CCC(C(=O)Nc1cccc(Cl)c1C)n1nc(-c2ccc(C)cc2)ccc1=O (stereo unspecified),inactive: 2.71%,–
O=C(NCc1cccc(Cl)c1)c1cc2ccc3cccnc3c2[nH]1,inactive: 8.78%,–
CC(C)COc1ccc(C(=O)Nc2ccc(S(=O)(=O)Nc3ncccn3)cc2)cc1,inactive: 1.3%,–
CCC(=O)Nc1cc(C)c(O)c(-c2nc3ncccc3o2)c1,inactive: 4.18%,–
CC1CCN(C(=O)Cn2cc(SCC(=O)NCc3ccccc3Cl)c3ccccc32)CC1,inactive: -27.5%,–
Cc1cc(C)c(NC(=O)CSc2nc3ccccc3nc2N2CCCCC2)c(C)c1,inactive: -1.33%,–
O=C(Nc1cccc(-c2nc3cc(Cl)ccc3o2)c1)c1cc([N+](=O)[O-])ccc1N1CCOCC1,inactive: -0.226%,–
CCn1c(=O)c2cc(C(=O)Nc3cc(F)ccc3F)sc2c2ccccc21,inactive: -9.74%,–
COc1ccc(CN2C(=O)c3oc4ccccc4c(=O)c3C2c2ccc(O)cc2)cc1 (stereo unspecified),inactive: -0.84%,–
COc1ccc(NC(=O)c2csc3c2CCCCC3)cc1,inactive: -5.22%,–
